About 960 (0.37%) of roughly 260,000 compounds were called active. The inconclusive results got no clear call from the source; some entries with a clear call stand among them for comparison.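 How the source made its calls: active means mean E-selectin-positive cell signal at least 10% of the positive control, reached in at least 60% of replicates, without over 20% cell loss; inconclusive means no rule given, readout overlaps actives, possibly toxicity-flagged; inactive means the rest, including those meeting only one limit.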
molecular target: E-selectin (Homo sapiens) (UniProt P16581); assay: inducers of endothelial E-selectin expression – imaging, HUVEC, immunofluorescence imaging, single point, primary screen (AID 686992); conditions: at 7.58 µM, active compounds read high, normalized: neutral wells 0, TNF-alpha wells 100;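 further: signal is the percent of cells scored E-selectin positive by PE staining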
Chain of UniProt P16581 (P16581 whole entry, looked up): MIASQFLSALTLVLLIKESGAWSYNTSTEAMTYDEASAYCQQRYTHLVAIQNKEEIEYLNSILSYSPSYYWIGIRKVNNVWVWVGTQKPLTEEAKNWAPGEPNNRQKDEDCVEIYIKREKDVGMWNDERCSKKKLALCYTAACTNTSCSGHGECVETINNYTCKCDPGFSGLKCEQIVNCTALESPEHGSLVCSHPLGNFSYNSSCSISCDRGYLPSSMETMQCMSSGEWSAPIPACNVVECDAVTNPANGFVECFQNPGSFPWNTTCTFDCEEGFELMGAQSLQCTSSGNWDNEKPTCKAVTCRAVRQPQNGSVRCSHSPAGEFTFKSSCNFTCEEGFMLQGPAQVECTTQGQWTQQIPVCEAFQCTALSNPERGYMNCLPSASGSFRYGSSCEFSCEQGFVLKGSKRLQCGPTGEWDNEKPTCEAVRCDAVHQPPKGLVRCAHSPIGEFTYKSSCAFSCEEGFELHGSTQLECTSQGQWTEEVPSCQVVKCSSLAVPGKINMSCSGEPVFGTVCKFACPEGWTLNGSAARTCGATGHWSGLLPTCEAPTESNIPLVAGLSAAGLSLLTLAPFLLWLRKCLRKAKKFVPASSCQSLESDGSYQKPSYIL
Summary of the method: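 Read-out: % PE-positive cells | Test system: HUVEC | Doses: One compound dose added by pin transfer | Buffer or medium: EGM-2 over gelatin coat | Signal: Immunofluorescence imaging | Benchmarks: TNF-alpha, DMSO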

Compound	activation
CC(=O)NCc1ccc(-c2csc(NC(=O)CCCc3nc4ccccc4c(=O)[nH]3)n2)cc1	inconclusive: 99.1%
COc1ccc(-c2nc(-c3ccncc3)no2)cc1	inconclusive: 45.9%
CCN(CC)CC(=O)Nc1sc2c(c1C(=O)c1ccccc1OC)CCC2	inconclusive: 31.3%
COc1ccc(C#Cc2ccc3c(c2)O[C@@H](CN(C)C(=O)Nc2cccc(OC)c2)[C@H](C)CN([C@@H](C)CO)S3(=O)=O)cc1	active: 35.2%
Cc1cc(CNC(=O)c2cccc([N+](=O)[O-])c2C)c2ccccc2n1	inconclusive: 64.4%
CCCNC(=O)[C@@H]1[C@@H](CO)[C@@H]2Cn3c(ccc(-c4ccccc4OC)c3=O)[C@@H]2N1S(C)(=O)=O	inactive: -1.37%
NS(=O)(=O)c1cccc(NC(=O)c2ccno2)c1	inconclusive: 48.2%
O=C(C[C@@H]1C[C@@H]2c3cc(NS(=O)(=O)c4ccc(F)cc4)ccc3O[C@@H]2[C@H](CO)O1)NCc1ccncc1	inactive: -0.32%
CN(C)S(=O)(=O)c1cccc(CSCc2cccc(S(=O)(=O)N(C)C)c2)c1	inconclusive: 53.3%
CNC[C@@H]1Oc2ccc(NS(C)(=O)=O)cc2C(=O)N([C@@H](C)CO)C[C@@H]1C	active: 32.6%
Cc1cc(NC(=O)Nc2cccc([N+](=O)[O-])c2)no1	inconclusive: 81.1%
CC(C)CC#Cc1ccc2c(c1)O[C@H](CN(C)C(=O)C1CC1)[C@@H](C)CN([C@H](C)CO)S2(=O)=O	inconclusive: 93.4%
O=C(Nc1ccccc1)N1CCCCN2[C@H](CO)[C@H](c3ccc(-c4ccccc4F)cc3)[C@@H]2C1	inactive: -0.69%
CCc1ccc(/C=C2\SC(=S)N(CCCC(=O)N3CCN(C)CC3)C2=O)cc1	inactive: -0.198%
CN(C(=O)COC(=O)CN1C(=O)C2CC=CCC2C1=O)c1ccccc1 (stereo not given)	inconclusive: 27.2%
Cc1ccc(NC(=O)COC(=O)c2ccc([N+](=O)[O-])s2)c(C)c1	inactive: 0.127%
C[C@H]1CCCCO[C@@H](CN(C)C(=O)Cc2ccccc2)[C@@H](C)CN([C@@H](C)CO)C(=O)c2cc(NC(=O)c3ccncc3)ccc2O1	inactive: 0.35%
C[C@@H]1CN([C@@H](C)CO)C(=O)Cc2cc(NS(C)(=O)=O)ccc2O[C@H]1CN(C)Cc1ccc(Oc2ccccc2)cc1	inactive: 7.67%
O=C(CCC1N=C2c3ccccc3N=C(SCC(=O)NCc3ccco3)N2C1=O)NCc1ccco1 (stereo not given)	inconclusive: 27.8%
NC(=O)CSc1nnc2ccc(-c3ccc(F)cc3)nn12	inconclusive: 47.7%
CCOC(=O)Nc1ccc2c(c1)N(C(=O)CCN(CC)CC)c1ccccc1S2=O (stereo not given)	inconclusive: 27.7%
C[C@@H]1CN([C@@H](C)CO)C(=O)Cc2cc(NC(=O)Nc3ccc(F)cc3)ccc2O[C@@H]1CN(C)Cc1ccncc1	active: 127%
Cc1noc(C)c1NC(=O)Nc1cccc2c1O[C@@H](CN(C)CC1CCCCC1)[C@H](C)CN([C@@H](C)CO)C2=O	inconclusive: 214%
CCCCCn1nc(C(=O)N2CCc3ccccc32)c2ccccc2c1=O	inconclusive: 97.9%

Compound	activation
Cc1cccc(NS(=O)(=O)c2cc([N+](=O)[O-])ccc2C)n1	inconclusive: 87.8%
O=C(c1ccc(N2C(=O)CCC2=O)cc1)N1CCCSC1=Nc1ccccc1	inactive: -0.277%
C[C@@H]1CN([C@H](C)CO)C(=O)Cc2cc(NC(=O)Cn3cnnn3)ccc2O[C@H]1CN(C)C(=O)Nc1ccc(C(F)(F)F)cc1	active: 32.3%
C[C@H](CO)N1C[C@H](C)[C@H](CN(C)C(=O)CN(C)C)Oc2cc(-c3ccccc3)ccc2S1(=O)=O	inactive: 0.792%
C[C@@H]1CN([C@H](C)CO)C(=O)c2cccc(NC(=O)CCCCCC(=O)Nc3ccccc3N)c2O[C@H]1CN(C)C	inconclusive: 119%
O=C(Nc1ccc(Cl)c(Cl)c1)N[C@@H]1CC[C@@H](CCn2cc(C3CCCC3)nn2)O[C@@H]1CO	inactive: 0.0395%
C/C=C/c1ccc2c(c1)O[C@H](CN(C)C(=O)CC)[C@@H](C)CN([C@H](C)CO)S2(=O)=O	active: 73.8%
O=C(N/N=C/c1cccc2ccccc12)c1ccncc1	inactive: 0.495%
CCOc1ccccc1NC(=O)c1ccc2c(=O)n3c(nc2c1)CCCCC3	inconclusive: 83.1%
C[C@H](CO)N1C[C@H](C)[C@H](CN(C)Cc2ccc(Cl)c(Cl)c2)Oc2ccc(NC(=O)CCC(F)(F)F)cc2C1=O	inconclusive: 45.8%
CCc1c(C)sc(NC(=S)N2CCN(CC)CC2)c1C(=O)OC	inconclusive: 30%
Cc1cccc(NC(=O)CNC(=O)CCNC(=O)c2ccc(C(C)(C)C)cc2)c1C	inconclusive: 82.2%
COC(=O)c1ccc(CN2C(=O)[C@]3(OCCC=C[C@H]3C)c3ccccc32)cc1	inconclusive: 58.4%
O=C(c1cccnc1)N1CC[C@@H]2[C@H](CO)Nc3ccc(-c4cccc(F)c4)cc3[C@@H]21	inconclusive: 45.3%
O=C(COC(=O)c1ccc(Br)o1)Nc1ccc2[nH]c(=O)[nH]c2c1	active: 26.7%
C[C@H](CO)N1C[C@H](C)[C@H](CN(C)S(=O)(=O)c2ccc(Cl)cc2)Oc2ccc(NC(=O)Cc3ccccc3)cc2C1=O	active: 36.3%
Cc1c(C(=O)NCCCN2CCCC2=O)oc2ccc(S(=O)(=O)N3CCOCC3)cc12	inconclusive: 41%
C[C@@H]1CN([C@H](C)CO)C(=O)Cc2cc(NC(=O)CCN3CCOCC3)ccc2O[C@H]1CN(C)S(C)(=O)=O	active: 332%
Cc1ccccc1C(=O)NCC(=O)OC(C)C(=O)Nc1cccc(S(=O)(=O)N2CCOCC2)c1 (stereo not given)	inactive: 1.18%
NC(=NC1CCCCC1)NS(=O)(=O)c1ccccc1	inconclusive: 36.2%
C[C@@H]1CN([C@@H](C)CO)C(=O)c2cc(-c3ccc(C#N)cc3)cnc2O[C@@H]1CN(C)C(=O)Nc1ccc(F)cc1	inconclusive: 26%
CC(C)CC#Cc1ccc2c(c1)O[C@@H](CN(C)Cc1ccccn1)[C@H](C)CN([C@@H](C)CO)S2(=O)=O	inactive: 0.046%
O=C(COC(=O)c1cc(=O)[nH]c2ccccc12)NCc1cccc(Cl)c1	inconclusive: 36.3%
COc1ccc(CSC(=S)NNc2ccccc2)cc1	inconclusive: 60.2%

Compound	activation
Cc1ccc(CN2CCN(Cc3cc(=O)c4ccccc4[nH]3)CC2CCO)o1 (stereo not given)	inconclusive: 32.6%
O=C(c1ccco1)N1CCN(C(=O)C2CC2)CC1	active: 36.9%
C[C@@H]1CN([C@H](C)CO)C(=O)Cc2cc(NC(=O)CCN3CCOCC3)ccc2O[C@H]1CN(C)C(=O)Nc1ccc2c(c1)OCO2	inconclusive: 56.1%
Cc1ccc(C)c(CNc2ccc(S(=O)(=O)N3CCCCC3)cc2)c1	inconclusive: 81.5%
C[C@H](CO)N1C[C@H](C)[C@@H](CN(C)Cc2ccncc2)Oc2ccc(NS(=O)(=O)c3ccc(F)cc3)cc2C1=O	inconclusive: 36.1%
CC[C@]12c3[nH]c4ccc(Cl)cc4c3CCN1C(=O)[C@@H](CC(=O)NCCC1=CCCCC1)C[C@@H]2C(=O)N1CCN(C(=O)C2CC2)CC1	inactive: -0.0535%
CCCNC(=O)[C@H]1[C@H](CO)[C@H]2Cn3c(ccc(-c4ccccc4)c3=O)[C@H]2N1C(=O)c1ccccc1F	inactive: -0.361%
Cc1ccc(-c2ccc3c(c2)O[C@H](CN(C)Cc2cncnc2)[C@@H](C)CN([C@@H](C)CO)S3(=O)=O)cc1	inconclusive: 64.3%
O=C(Nc1nnc(-c2cccs2)o1)c1ccco1	inactive: 0.261%
Cc1c(C(=O)OCC(O)=C(C#N)c2nc3ccccc3[nH]2)oc2ccc(Br)cc12	inactive: 0.024%
C[C@@H]1CN([C@@H](C)CO)C(=O)Cc2cc(NC(=O)Cc3ccccc3)ccc2O[C@@H]1CN(C)Cc1ccncc1	inconclusive: 107%
O=C1CCC(c2ccc(-n3ccnc3)cc2)=NN1	inconclusive: 63.5%
OCCCNc1cc(-c2ccnc(Nc3cccc(Cl)c3)n2)ccn1	inactive: -0.196%
C[C@@H]1CN([C@H](C)CO)C(=O)c2cc(-c3ccc(F)cc3)cnc2O[C@@H]1CN(C)C(=O)NC1CCCC1	inactive: 0.865%
Cc1cc(NC(=O)C(C)Sc2nnc(NCc3ccco3)s2)no1 (stereo not given)	inconclusive: 98.2%
C[C@@H]1CN([C@H](C)CO)C(=O)c2cccc(NC(=O)Nc3ccc(F)cc3)c2O[C@@H]1CN(C)S(=O)(=O)c1cn(C)cn1	active: 80.4%
CCOc1ccc(N(CC(=O)OC)S(=O)(=O)c2ccc3c(c2)n(C)c(=O)c(=O)n3C)cc1	inconclusive: 69.7%
CCCNC(=O)Nc1ccc2c(c1)OC[C@@H](C)N(CCC(F)(F)F)C[C@H](C)[C@@H](OC)CN(C)C2=O	inconclusive: 27%
CC(C)NC(=O)Nc1ccc2c(c1)C(=O)N([C@H](C)CO)C[C@@H](C)[C@H](CN(C)Cc1ccc(C(=O)Nc3ccccc3N)cc1)O2	inconclusive: 0.218%
Cc1noc(C)c1S(=O)(=O)N(C)C[C@@H]1OCCCC[C@@H](C)Oc2ccc(NC(=O)c3ccccc3)cc2C(=O)N([C@H](C)CO)C[C@@H]1C	inactive: 2.32%
CCOc1cc(C(=O)OCc2ccc(OC)cc2)ccc1OCC(=O)N1CCOCC1	inconclusive: 74.4%
COc1ccc(S(=O)(=O)Nc2ccc3c(c2)CC(=O)N([C@@H](C)CO)C[C@H](C)[C@@H](CN(C)Cc2ccc(Cl)c(Cl)c2)O3)cc1	inactive: 0.316%

Reference: PubChem BioAssay AID686992 (Broad Institute, 2013)
